Assay results as given in a collection of fitness landscapes (doi:10.1016/j.celrep.2020.107928).
In all, about 81,000 sequences were measured (“one-hybrid fitness for binding NBS DNA”: median about -0.1, highest 2% from about 0.36 on). The list shows a part of the results.

B1: Caulobacter ParB omega fusion; a variant is named by its letters at X, in order, B8GW30 (parent)
chain: MESVVVGEPGMSEGRRGLGRGLSALLGEVDAAPAQAPGEQLGGSREAPIEILQRNPDQPRRTFREEDLEDLSNSIREKGVLQPILVRPSPDTAGEYQIVAGERAWRAAQRAGLKTVPIMVRELDDLAVLEIGIIENVQRADLNVLEEALSYKVLMEKFERTQENIAQTIGKSXSHVANXMRLLXLPDEVQSYLVSGELTAXHARAIAAAADPVALAKQIIEGGLSVRETEALARKAPNLSAGKSKGGRPPRVKDTDTQALESDLSSVLGLDVSIDHRGSTGTLTITYATLEQLDDLCNRLTRGI

Variants of: B1
Assay: one-hybrid fitness for binding NBS DNA (the Noc-binding site; scaled: cognate 1, non-cognate 0); higher = stronger binding
Conditions: with NBS DNA site
Outline: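 Fitness here means the log change in variant-to-wild-type read ratio between plasmids sequenced before and after selection. That scale was set so cognate equals 1 and non-cognate equals 0. The selection was a bacterial one-hybrid screen of Caulobacter ParB libraries, four specificity codons randomised, in E. coli USO carrying a HIS3 reporter with the site 19 bp from the promoter, grown 48 hours at 37°C on M9-minus-histidine with 0.1 mM IPTG and 5 mM 3-AT.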

one-hybrid fitness for binding NBS DNA, 0.569:
QMRA

one-hybrid fitness for binding NBS DNA, 0.722:
QYKT

one-hybrid fitness for binding NBS DNA, 0.301:
QCWS

one-hybrid fitness for binding NBS DNA, 0.56:
QVRT

one-hybrid fitness for binding NBS DNA, 0.272:
QACS

one-hybrid fitness for binding NBS DNA, 0.462:
QYCR

one-hybrid fitness for binding NBS DNA, 0.245:
RRMN

one-hybrid fitness for binding NBS DNA, 1.03:
QHKR

one-hybrid fitness for binding NBS DNA, 0.216:
RMKM

one-hybrid fitness for binding NBS DNA, 0.262:
RTHH

one-hybrid fitness for binding NBS DNA, 0.311:
QVCS

one-hybrid fitness for binding NBS DNA, 0.232:
IRRH

one-hybrid fitness for binding NBS DNA, 0.289:
NPPV

one-hybrid fitness for binding NBS DNA, 0.327:
QRLQ

one-hybrid fitness for binding NBS DNA, ≤ 0.2:
MMNT
LVRF
IMYR
AHYR
MSDR
NLYS
KDQT
PCNE
RYPA
NKGV
GRMK
GCWL
IRHI
DSWN
KYNE
PVME
ARIV
QLYL
RIFF
YECR
FRCN
VNMN
KVNN
NFLI
PTLS
TARW
YHVR
VNPL
NNTD
MTPS
RDPL
HRQC
CVTK
RDQA
DKNL
YHNQ
RCMP
YCLV
PKTV
KTLW
KEAS
GSSY
YEQT
DNAT
AHYA
QVPL
GPGK
MKFG
RQAC
SRDN
PYKR
YITG
ERRC
QTFQ
RGYN
VGLY
THDW
VKTY
PCRY
HVAI
ESLH
TYRN
APCR
RYTL
VRHC
ESWS
VDAC
ICFG
PTRA
VIIC
CYMQ
YLRF
TSPP
QTQI
PAFG
NVFR
RTQC
QTDF
TLYG
AQWR
CRRD
QQHE
HWKG
GRVV
AGSR
EMWC
HMIF
RKHM
CMQG
NAPM
ASNM
TMYV
RVWF
FWEW
VVKK
PGGG
GSHS
FWIS
REGM
PQSN
CMSL
TSSN
EGTG
LDCE
MGAY
GSTG
YNSG
CLGI
FACR
IFHT
GPAP
MAWG
RQRP
KLFV
PSLK
PFYL
DFTW
VSTT
TSHY
VVFM
GPKI
YPRV
NLRY
NPRG
PLEP
QSTC
YIGC
ELKL
SEYG
QAVG
TRCW
DVGL
DAQC
RPGW
GSPM
CYNC
VWDS
PQIT
TVCF
LEKR
QDFG
QCSL
RISL
ITAN
HPYQ
EKRR
KPFW
EDMT
LNWT
EHND
PQDM
HKEV
KDHF
TARD
HGPG
YMTR
AGLL
NAMC
KHRQ
VFPF
RDSA
FTCT
YQMC
AHQW
QFLS
PRYN
DINY
VTMT
VVLC
MHGT
MVCT
PTWF
FLPS
YKFC
LYGT
VMYC
TKSC
FSSF
QQLM
SYGR
GSHH
GPFC
LPFD
MLTL
IWDG
QDGG
TDCI
IKTV
SARN
DGTM
QPKA
QLDY
LNMH
YTHF
SPPL
CVKM
WRCR
GHPI
TVNG
MRTY
VAHS
FINR
LTER
WSNY
HWTK
RIWN
FNTD
RNRP
WMNT
YTWS
RVFW
AKQY
MISR
DRCD
SITA
VWRT
DAET
QTYG
TPPF
PWDG
RGPA
RQIP
NAYG
IRCW
VRTD
SATV
TPGV
NRER
RMMW
FPQC
SQVQ
AADY
CSVI
SQQS
TNSV
SLPQ
NSMW
QEDT
IACT
NRVT
IANC
GHDG
AAYK
CYPS
LRMA
YHID
ILVS
RKRF
HQKC
YANV
SMIF
AVWT
AVNR
GDKF
QQLI
LIAS
LDTP
MLLH
MTDE
QPRY
HSQV
SKRT
STYF
CPKR
WSCD
NGRW
EKRG
WDGG
NEFG
LSPI
MWPS
VNLI
YYSR
TYSR
HGCC
WMGT
DQNS
GWIT
HHTG
AWTR
KTMA
TVGC
SDYH
SKHT
PRDG
GKWW
DREA
TFKK

one-hybrid fitness for binding NBS DNA, 0.288:
QHER

one-hybrid fitness for binding NBS DNA, 0.201:
RTPT

one-hybrid fitness for binding NBS DNA, 0.221:
QARL

one-hybrid fitness for binding NBS DNA, 0.246:
QYKL
